# From PubChem BioAssay AID1460 (National Center for Advancing Translational Sciences (NCATS), 2008)
# Screen size: about 270,000 compounds; about 5,800 (2.1%) were called active. Inconclusive means that the source gave no clear call. Such entries were picked first, then a sample of the others. The call rests on the fitted dose curve; in most records, active means well fitted inhibition curve with a large enough effect; inconclusive means small, poorly fitted or top-dose-only effect; inactive means flat fitted curve, though single readings scatter. Where the call is inconclusive, the potency comes from a doubtful curve fit.
# Biological target: Microtubule-associated protein tau (Homo sapiens) (UniProt P10636)
# Experiment: qHTS for Inhibitors of Tau Fibril Formation, Thioflavin T Binding; further: nearly all actives have a fitted effect of over 55% in size
# Conditions: recombinant tau K18 P301L (four-repeat tau fragment), heparin-induced fibrillization, ThT fluorescence; series mostly up to 57.4 µM; activity, negative = inhibition: at the top concentration
# Procedure, shortened: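 Heparin-induced fibrillization of the P301L-mutant K18 repeat-domain fragment of human tau was followed by ThT binding in quantitative high-throughput format.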
# On the % scale 0 is the no-effect control and ±100 the full control effect; potency means the concentration at half of the fitted maximal effect; tags describe the fitted curve by direction and shape.
# Chain of UniProt P10636 (P10636 whole entry, looked up): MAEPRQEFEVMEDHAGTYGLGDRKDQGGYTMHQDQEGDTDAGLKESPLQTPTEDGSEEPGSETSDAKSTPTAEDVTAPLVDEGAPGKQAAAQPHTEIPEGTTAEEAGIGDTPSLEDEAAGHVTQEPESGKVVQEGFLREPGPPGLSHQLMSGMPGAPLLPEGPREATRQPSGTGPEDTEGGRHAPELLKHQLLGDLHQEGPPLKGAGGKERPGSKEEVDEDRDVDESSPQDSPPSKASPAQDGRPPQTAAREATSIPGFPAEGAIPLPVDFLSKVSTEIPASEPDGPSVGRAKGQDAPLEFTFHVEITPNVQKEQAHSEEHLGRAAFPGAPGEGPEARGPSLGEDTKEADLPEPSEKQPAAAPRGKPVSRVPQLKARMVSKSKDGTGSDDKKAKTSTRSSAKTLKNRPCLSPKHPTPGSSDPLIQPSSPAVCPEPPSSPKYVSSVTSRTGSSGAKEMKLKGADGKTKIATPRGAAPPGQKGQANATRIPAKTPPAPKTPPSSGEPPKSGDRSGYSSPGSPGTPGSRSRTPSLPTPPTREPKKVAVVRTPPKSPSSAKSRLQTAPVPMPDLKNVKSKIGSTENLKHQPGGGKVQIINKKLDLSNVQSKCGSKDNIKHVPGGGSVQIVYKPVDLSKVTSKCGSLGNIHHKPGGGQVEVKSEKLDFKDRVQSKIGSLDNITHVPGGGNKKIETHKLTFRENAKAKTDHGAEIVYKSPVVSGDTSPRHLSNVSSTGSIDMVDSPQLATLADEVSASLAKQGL
Structure (SMILES),Potency,"activity, negative = inhibition"
Cc1ccc(C)n1-c1ccc(-c2nnco2)cc1,"inconclusive: 28.2 µM [inhibitor, single point]",
COc1cccc(CNS(=O)(=O)c2ccc(N3CCCCS3(=O)=O)cc2)c1,,inactive: 9.02%
CCOC(=O)C1=C(CN2CCCCC2)NC(=O)NC1c1ccc(C)cc1 (stereo not given),,inactive: -4.85%
Cc1ccc(CNC(=O)c2sc3nc(-c4ccc(F)cc4)ccc3c2N)cc1,"inconclusive: 3.16 µM [inhibitor, full curve, poor fit]",
C#Cc1ccc([C@H]2C=C(C(=O)N3CCN(Cc4ccccc4)CC3)O[C@@H](OCc3ccc(CO)cc3)C2)cc1,"inconclusive: 25.1 µM [inhibitor, partial curve]",
CCn1c(=S)sc2c(=O)n(-c3ccccc3)c(=S)[nH]c21,"inconclusive: 31.6 µM [inhibitor, partial curve]",
COC(=O)C1=C(C(=O)OC)C(c2ccc(OC)c(OC)c2)c2sc(=O)[nH]c2S1 (stereo not given),"inconclusive: 20 µM [inhibitor, partial curve]",
CC(C)C(NC(=O)C12CC3CC(CC(C3)C1)C2)C(=O)NC1=NCCS1 (stereo not given),,inactive: -5.89%
Cn1c(CNc2nc(-c3ccccc3)cs2)nnc1SCC(=O)OC1CCCCC1,"inconclusive: 31.6 µM [inhibitor, single point]",
Clc1ccc(-n2ncc3c(N4CCCCCC4)ncnc32)cc1,"inconclusive: 6.31 µM [inhibitor, partial curve]",
CC(C)(C)c1ccc(-c2nc(S(=O)(=O)c3ccccc3)c(N3CCOCC3)o2)cc1,"inconclusive: 10 µM [inhibitor, partial curve]",
O=C1CC(c2ccco2)CC2=C1C1c3ccccc3C(=O)N1c1ccccc1N2 (stereo not given),,inactive: -13.8%
CC(C)c1ccc(-c2nnn(Cc3nc4ccccc4s3)n2)cc1,"inconclusive: 15.8 µM [inhibitor, partial curve]",
O=C(c1ccco1)N1CCN(Cc2cn[nH]c2-c2cccc3ccccc23)CC1,,inactive: -1.72%
COc1ccccc1NS(=O)(=O)c1cc([N+](=O)[O-])ccc1N/N=C/c1c[nH]c2ccccc12,active: 2.82 µM,
O=C(O)C1=CC(=C(c2ccc(O)c(C(=O)O)c2)c2ccc(O)c(C(=O)O)c2)C=CC1=O,active: 31.6 µM,
COc1ccc(CC(=O)Nc2ccc(C(C)=O)cc2)cc1,"inconclusive: 15.8 µM [inhibitor, partial curve]",
CC(=O)Nc1ccc(S(=O)(=O)N2CCN(c3nnnn3-c3ccccc3)CC2)cc1,,inactive: 8.1%
N#C/C(=C\c1ccncc1)c1nc2ccccc2[nH]1,"inconclusive: 14.1 µM [inhibitor, partial curve]",
C[C@@H]1C(c2ccc(F)cc2)=NN(c2ccc(Br)cc2)[C@H]1C(=O)N1CCOC1=O,"inconclusive: 25.1 µM [inhibitor, partial curve, poor fit]",
COc1ccc(C(=O)Nc2nnc(S(=O)(=O)N3CCC(C)CC3)s2)cc1OC,active: 12.6 µM,
COc1ccc(N=Nc2nc(-c3ccccc3)c(-c3ccccc3)[nH]2)cc1,active: 3.98 µM,
CO[C@H]1COC(=O)[C@@H](CCSC)NC(=O)C/C=C\[C@@H](C)COC(=O)[C@@H](OCc2ccccc2)/C=C\[C@@H]1C,,inactive: -2.25% [at 11.5 µM]
CCOC(=O)c1cc(-c2ccc(F)cc2)n(CCC(=O)NCc2ccccc2OC)c1C,"inconclusive: 22.4 µM [inhibitor, single point]",

Structure (SMILES),Potency,"activity, negative = inhibition"
CCOC(=O)c1cnc2c(C)cc(Cl)cc2c1NCCc1ccc(OC)c(OC)c1,"inconclusive: 12.6 µM [inhibitor, partial curve]",
CC(=O)Nc1ccccc1NC(=O)C/C(C)=N/NC(=O)C(=O)Nc1cccc(Cl)c1C,"inconclusive: 17.8 µM [inhibitor, partial curve]",
COc1cccc([C@@H]2Oc3ccc(OC)cc3C(=O)[C@H]2OC(=O)N[C@H]2CCCc3ccccc32)c1,,inactive: -12.7%
O=C1c2ccccc2NC(c2ccc(-c3ccc(Br)cc3)o2)N1O (stereo not given),"inconclusive: 17.8 µM [inhibitor, partial curve, poor fit]",
CC(C)COc1ccc(-c2nonc2NC(=O)c2ccc(F)cc2)cc1,"inconclusive: 3.55 µM [inhibitor, single point]",
COc1ccc(OCCC(=O)N2CCCCC2)cc1,,inactive: -4.11%
O=c1[nH]c(CSc2ncc(-c3ccc(F)cc3)n2Cc2ccco2)nc2ccccc12,"inconclusive: 15.8 µM [inhibitor, partial curve]",
O=C(Nc1nnc(S(=O)(=O)N2CCCC2)s1)c1ccccc1F,"inconclusive: 3.98 µM [inhibitor, partial curve]",
CCCSc1sc(C(=O)OC)c(-c2cccs2)c1C#N,"inconclusive: 44.7 µM [inhibitor, single point]",
Cc1nn(C)c(C)c1S(=O)(=O)Nc1ccc2c(c1)OCO2,"inconclusive: 31.6 µM [inhibitor, partial curve]",
c1ccc(CC2CCN(c3nnnn3-c3ccccc3)CC2)cc1,"inconclusive: 39.8 µM [inhibitor, partial curve]",
Cc1sc2ccc3sccc3c2[n+]1C,active: 25.1 µM,
O=C(Nc1nnc(-c2ccco2)o1)C1CC1,,inactive: 5.95%
CSc1nc(C)c(Oc2ccccc2)c(=O)n1C,,inactive: -1.91%
C/C(=N\NC(=S)Nc1ccccc1C)c1cc2ccccc2o1,"inconclusive: 8.91 µM [inhibitor, partial curve]",
O=C(NCC(=O)N(Cc1cccs1)C(C(=O)NC1CCCCC1)c1ccco1)c1ccco1 (stereo not given),,inactive: -2.74%
O=C1/C(=C/c2ccc(O)cc2)CCc2ccc([N+](=O)[O-])cc21,"inconclusive: 4.47 µM [inhibitor, full curve]",
CCOc1cccc(-c2cc(=O)[nH][nH]2)c1,active: 3.55 µM,
COc1ccc(-c2csc(N3CCC(c4ccccc4)CC3)n2)cc1,"inconclusive: 35.5 µM [inhibitor, single point]",
O=[N+]([O-])c1cccc(/C=N/n2c(COc3ccccc3)n[nH]c2=S)c1,"inconclusive: 35.5 µM [inhibitor, single point]",
O=C(Nc1cc(Cl)ccc1Cl)c1cc(S(=O)(=O)N2CCCc3ccccc32)ccc1F,,inactive: -6.99%
CC1=CC(=O)C(C(C)C)=CC1=NC(=O)c1ccc(C)cc1,,inactive: -17.8%
Cc1cc(-c2n[nH]c(=S)o2)c(C)n1-c1ccccc1,"inconclusive: 31.6 µM [inhibitor, single point]",
Cc1ccc(/C=N/NC(=O)c2ccc(C(=O)N/N=C/c3ccc(C)s3)o2)s1,"inconclusive: 1.58 µM [inhibitor, full curve, poor fit]",

Structure (SMILES),Potency,"activity, negative = inhibition"
N=C1/C(=C\c2ccc(OC(=O)c3ccco3)cc2)C(=O)N=C2SC=NN12,"inconclusive: 15.8 µM [inhibitor, partial curve, poor fit]",
CC(=O)N1CCC(N(Cc2ccco2)C(=O)Nc2ccc(Br)cc2F)CC1,,inactive: 3.15%
COc1cc(/C=N\NC(=O)CN2CCOCC2)ccc1OCC(=O)Nc1ccc(C)c(C)c1,"inconclusive: 5.62 µM [inhibitor, partial curve, poor fit]",
CCc1nc(Nc2ccc(N3CCN(C(C)=O)CC3)cc2)c2oc3ccccc3c2n1,active: 12.6 µM,
O=C1COc2ccc(C(=O)COC(=O)c3sc4ccccc4c3Cl)cc2N1,"inconclusive: 0.355 µM [inhibitor, full curve]",
CCOc1ccc(NC(=O)Cc2ccc(-n3c(C)nc4cccnc43)cc2)cc1,,inactive: -12.5%
COc1ccc(C(=O)NNc2ncnc3c2cnn3-c2ccccc2)cc1,,inactive: -5.72%
Cc1ccccc1Cn1cc(NC(=O)c2cc(C3CC3)on2)cn1,,inactive: -10.9%
COc1ccccc1-c1c(C(F)(F)F)oc2cc(OC(=O)c3ccccc3[N+](=O)[O-])ccc2c1=O,"inconclusive: 10 µM [inhibitor, partial curve]",
COc1ccc(NC(=O)C(=O)NCC(c2cccnc2)N2CCc3ccccc3C2)cc1 (stereo not given),active: 14.1 µM,
Cc1nc(NS(=O)(=O)c2ccccc2)sc1C(=O)NN,,inactive: -3.04%
COc1ccc2nc(SCC(=O)N3CC(=O)Nc4ccccc43)c(C#N)cc2c1,"inconclusive: 3.16 µM [inhibitor, full curve]",
COc1ccc2cc3cc(C(=O)Nc4cc(OC)c(OC)c(OC)c4)oc3nc2c1,"inconclusive: 1.58 µM [inhibitor, full curve]",
O=C(Nc1nccs1)C(=O)c1c[nH]c2ccccc12,"inconclusive: 17.8 µM [inhibitor, partial curve]",
Cc1nnc(SCC(=O)N2CCc3ccccc32)s1,"inconclusive: 14.1 µM [inhibitor, partial curve]",
O=C(c1cc2nc(-c3cccs3)cc(C(F)(F)Cl)n2n1)N1CCCc2ccccc21,"inconclusive: 10 µM [inhibitor, partial curve]",
CC[C@@]12CCCN3CCc4c(n(c5ccccc45)[C@](O)(C(=O)OC)C1)C32 (stereo not given in full),,inactive: 1.72%
Cc1[nH]n(C(N)=S)c(=O)c1N=Nc1cc(-c2ccc(Br)cc2)[nH]n1,active: 2.24 µM,
Cc1cc2oc(=O)cc(-c3ccccc3)c2c(C)c1-c1ccc(N(C)C)cc1,"inconclusive: 8.91 µM [inhibitor, full curve]",
COc1ccc(CCN2CC(O)=C(c3nc4ccccc4c(=O)[nH]3)C2=N)cc1OC,"inconclusive: 4.47 µM [inhibitor, full curve]",
CN(CCO)c1ncnc2nc[nH]c12,,inactive: -4.24%
Cc1ccc(-c2cccc(-c3cc(=O)oc4ccc(C(C)(C)C)cc34)c2)cc1,"inconclusive: 7.94 µM [inhibitor, full curve]",
